biological target: MICA on MDA-MB-231 cells (UniProt Q29983 24-383, limits assumed); assay: cell-based or functional assay
Sequence of UniProt Q29983 (Q29983 24-383 limits assumed): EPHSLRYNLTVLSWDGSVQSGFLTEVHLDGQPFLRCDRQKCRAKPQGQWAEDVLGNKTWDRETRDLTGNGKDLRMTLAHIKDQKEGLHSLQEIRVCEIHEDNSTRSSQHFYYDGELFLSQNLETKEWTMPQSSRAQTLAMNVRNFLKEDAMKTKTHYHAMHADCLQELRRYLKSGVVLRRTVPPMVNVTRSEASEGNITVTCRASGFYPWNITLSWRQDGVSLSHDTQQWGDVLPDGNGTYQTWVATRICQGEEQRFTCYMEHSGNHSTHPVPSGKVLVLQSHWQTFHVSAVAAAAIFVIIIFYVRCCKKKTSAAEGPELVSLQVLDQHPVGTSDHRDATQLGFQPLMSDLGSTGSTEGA

TDCC EC50 (pM), MDA-MB-231 target cells, E:T 5 | Binder
0.055 pM | SI-49E3 (other) heavy: DVVMTQSPSSVSASVGDRVTITCQASQNIRTYLSWYQQKPGKAPKLLIYAAANLASGVPSRFSGSGSGTDFTLTISDLEPGDAATYYCQSTYLGTDYVGGAFGGGTKVEIKGGGGSGGGGSGGGGSGGGGSRSLVESGGGLVQPGGSLRLSCTASGFTISSYHMQWVRQAPGKGLEYIGTISSGGNVYYASSARGRFTISRPSSKNTVDLQMNSLRAEDTAVYYCARDSGYSDPMWGQGTLVTVSTGGGGSGGGGSEVQLLESGGGLVQPGGSLRLSCAASGFSFSSGYDMCWVRQAPGKGLEWIACIAAGSAGITYDANWAKGRFTISRDNSKNTLYLQMNSLRAEDTAVYYCARSAFSFDYAMDLWGQGTLVTVSSASTKGPSVFPLAPSSKSTSGGTAALGCLVKDYFPEPVTVSWNSGALTSGVHTFPAVLQSSGLYSLSSVVTVPSSSLGTQTYICNVNHKPSNTKVDKRV[human IgG1 Fc with changes cut from this listing]GGGGSGGGGSEVQLVESGGGLVQPGGSLRLSCAASGFTISTNAMSWVRQAPGKGLEWIGVITGRDITYYASWAKGRFTISRDNSKNTLYLQMNSLRAEDTAVYYCARDGGSSAITSNNIWGQGTLVTVSSGGGGSGGGGSGGGGSGGGGSDVVMTQSPSTLSASVGDRVTINCQASESISSWLAWYQQKPGKAPKLLIYEASKLASGVPSRFSGSGSGTEFTLTISSLQPDDFATYYCQGYFYFISRTYVNSFGGGTKVEIKGGGGSGGGGSGFLNSLFNQEVQIPLTESYCGPCPKNWICYKNNCYQFFDESKNWYESQASCMSQNASLLKVYSKEDQDLLKLVKSYHWMGLVHIPTNGSWQWEDGSILSPNLLTIIEMQKGDCALYASSFKGYIENCSTPNTYICMQRTVGGGGSGGGGSGGGGSGGGGSFLNSLFNQEVQIPLTESYCGPCPKNWICYKNNCYQFFDESKNWYESQASCMSQNASLLKVYSKEDQDLLKLVKSYHWMGLVHIPTNGSWQWEDGSILSPNLLTIIEMQKGDCALYASSFKGYIENCSTPNTYICMQRTV light: DIQMTQSPSTLSASVGDRVTITCQASQSISSHLNWYQQKPGKAPKLLIYKASTLASGVPSRFSGSGSGTEFTLTISSLQPDDFATYYCQQGYSWGNVDNVFGGGTKVEIKRTVAAPSVFIFPPSDEQLKSGTASVVCLLNNFYPREAKVQWKVDNALQSGNSQESVTEQDSKDSTYSLSSTLTLSKADYEKHKVYACEVTHQGLSSPVTKSFNRGEC
0.054 pM | SI-49E1 (other) heavy: FLNSLFNQEVQIPLTESYCGPCPKNWICYKNNCYQFFDESKNWYESQASCMSQNASLLKVYSKEDQDLLKLVKSYHWMGLVHIPTNGSWQWEDGSILSPNLLTIIEMQKGDCALYASSFKGYIENCSTPNTYICMQRTVGGGGSGGGGSGGGGSGGGGSFLNSLFNQEVQIPLTESYCGPCPKNWICYKNNCYQFFDESKNWYESQASCMSQNASLLKVYSKEDQDLLKLVKSYHWMGLVHIPTNGSWQWEDGSILSPNLLTIIEMQKGDCALYASSFKGYIENCSTPNTYICMQRTVVDGGGGSGGGGSEVQLVESGGGLVQPGGSLRLSCAASGFTISTNAMSWVRQAPGKGLEWIGVITGRDITYYASWAKGRFTISRDNSKNTLYLQMNSLRAEDTAVYYCARDGGSSAITSNNIWGQGTLVTVSSASTKGPSVFPLAPSSKSTSGGTAALGCLVKDYFPEPVTVSWNSGALTSGVHTFPAVLQSSGLYSLSSVVTVPSSSLGTQTYICNVNHKPSNTKVDKRV[human IgG1 Fc with changes cut from this listing]GGGGSGGGGSEVQLLESGGGLVQPGGSLRLSCAASGFSFSSGYDMCWVRQAPGKGLEWIACIAAGSAGITYDANWAKGRFTISRDNSKNTLYLQMNSLRAEDTAVYYCARSAFSFDYAMDLWGQGTLVTVSSGGGGSGGGGSGGGGSGGGGSDIQMTQSPSTLSASVGDRVTITCQASQSISSHLNWYQQKPGKAPKLLIYKASTLASGVPSRFSGSGSGTEFTLTISSLQPDDFATYYCQQGYSWGNVDNVFGGGTKVEIKGGGGSGGGGSGRSLVESGGGLVQPGGSLRLSCTASGFTISSYHMQWVRQAPGKGLEYIGTISSGGNVYYASSARGRFTISRPSSKNTVDLQMNSLRAEDTAVYYCARDSGYSDPMWGQGTLVTVSSGGGGSGGGGSGGGGSGGGGSDVVMTQSPSSVSASVGDRVTITCQASQNIRTYLSWYQQKPGKAPKLLIYAAANLASGVPSRFSGSGSGTDFTLTISDLEPGDAATYYCQSTYLGTDYVGGAFGGGTKVEIK light: DVVMTQSPSTLSASVGDRVTINCQASESISSWLAWYQQKPGKAPKLLIYEASKLASGVPSRFSGSGSGTEFTLTISSLQPDDFATYYCQGYFYFISRTYVNSFGGGTKVEIKRTVAAPSVFIFPPSDEQLKSGTASVVCLLNNFYPREAKVQWKVDNALQSGNSQESVTEQDSKDSTYSLSSTLTLSKADYEKHKVYACEVTHQGLSSPVTKSFNRGEC
0.129 pM | SI-49E2 (other) heavy: FLNSLFNQEVQIPLTESYCGPCPKNWICYKNNCYQFFDESKNWYESQASCMSQNASLLKVYSKEDQDLLKLVKSYHWMGLVHIPTNGSWQWEDGSILSPNLLTIIEMQKGDCALYASSFKGYIENCSTPNTYICMQRTVGGGGSGGGGSGGGGSGGGGSFLNSLFNQEVQIPLTESYCGPCPKNWICYKNNCYQFFDESKNWYESQASCMSQNASLLKVYSKEDQDLLKLVKSYHWMGLVHIPTNGSWQWEDGSILSPNLLTIIEMQKGDCALYASSFKGYIENCSTPNTYICMQRTVVDGGGGSGGGGSEVQLVESGGGLVQPGGSLRLSCAASGFTISTNAMSWVRQAPGKGLEWIGVITGRDITYYASWAKGRFTISRDNSKNTLYLQMNSLRAEDTAVYYCARDGGSSAITSNNIWGQGTLVTVSSASTKGPSVFPLAPSSKSTSGGTAALGCLVKDYFPEPVTVSWNSGALTSGVHTFPAVLQSSGLYSLSSVVTVPSSSLGTQTYICNVNHKPSNTKVDKRV[human IgG1 Fc with changes cut from this listing]GGGGSGGGGSRSLVESGGGLVQPGGSLRLSCTASGFTISSYHMQWVRQAPGKGLEYIGTISSGGNVYYASSARGRFTISRPSSKNTVDLQMNSLRAEDTAVYYCARDSGYSDPMWGQGTLVTVSSGGGGSGGGGSGGGGSGGGGSDVVMTQSPSSVSASVGDRVTITCQASQNIRTYLSWYQQKPGKAPKLLIYAAANLASGVPSRFSGSGSGTDFTLTISDLEPGDAATYYCQSTYLGTDYVGGAFGGGTKVEIKGGGGSGGGGSGEVQLLESGGGLVQPGGSLRLSCAASGFSFSSGYDMCWVRQAPGKGLEWIACIAAGSAGITYDANWAKGRFTISRDNSKNTLYLQMNSLRAEDTAVYYCARSAFSFDYAMDLWGQGTLVTVSSGGGGSGGGGSGGGGSGGGGSDIQMTQSPSTLSASVGDRVTITCQASQSISSHLNWYQQKPGKAPKLLIYKASTLASGVPSRFSGSGSGTEFTLTISSLQPDDFATYYCQQGYSWGNVDNVFGGGTKVEIK light: DVVMTQSPSTLSASVGDRVTINCQASESISSWLAWYQQKPGKAPKLLIYEASKLASGVPSRFSGSGSGTEFTLTISSLQPDDFATYYCQGYFYFISRTYVNSFGGGTKVEIKRTVAAPSVFIFPPSDEQLKSGTASVVCLLNNFYPREAKVQWKVDNALQSGNSQESVTEQDSKDSTYSLSSTLTLSKADYEKHKVYACEVTHQGLSSPVTKSFNRGEC

Source: patent publication US20230113563A1 (SYSTIMMUNE, published 2023)
